# Test results published in PubChem BioAssay AID1259400 (National Center for Advancing Translational Sciences (NCATS), 2018).
# Hit rate of the full screen: of about 350,000 compounds, about 2,100 (0.6%) were called active. The shares of active, inactive and inconclusive entries below differ from those in the screen.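 How the source made its calls: active means activity change of -60% or lower, but not beyond a set lower limit; inconclusive means change between -60% and -40%, or beyond the set limit; inactive means change above -40%.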
# Molecular target: Relaxin receptor 1 (Homo sapiens) (UniProt Q9HBX9)
# Experiment: qHTS Assay for Antagonists of the Relaxin Receptor RXFP1
# Settings: HEK293-RXFP1, relaxin-stimulated cAMP HTRF, 30 min; at 57.5 µM; hits give low values
# On the % scale 0 is the no-effect control and ±100 the full control effect.
# UniProt Q9HBX9, sequence (Q9HBX9 whole entry, looked up): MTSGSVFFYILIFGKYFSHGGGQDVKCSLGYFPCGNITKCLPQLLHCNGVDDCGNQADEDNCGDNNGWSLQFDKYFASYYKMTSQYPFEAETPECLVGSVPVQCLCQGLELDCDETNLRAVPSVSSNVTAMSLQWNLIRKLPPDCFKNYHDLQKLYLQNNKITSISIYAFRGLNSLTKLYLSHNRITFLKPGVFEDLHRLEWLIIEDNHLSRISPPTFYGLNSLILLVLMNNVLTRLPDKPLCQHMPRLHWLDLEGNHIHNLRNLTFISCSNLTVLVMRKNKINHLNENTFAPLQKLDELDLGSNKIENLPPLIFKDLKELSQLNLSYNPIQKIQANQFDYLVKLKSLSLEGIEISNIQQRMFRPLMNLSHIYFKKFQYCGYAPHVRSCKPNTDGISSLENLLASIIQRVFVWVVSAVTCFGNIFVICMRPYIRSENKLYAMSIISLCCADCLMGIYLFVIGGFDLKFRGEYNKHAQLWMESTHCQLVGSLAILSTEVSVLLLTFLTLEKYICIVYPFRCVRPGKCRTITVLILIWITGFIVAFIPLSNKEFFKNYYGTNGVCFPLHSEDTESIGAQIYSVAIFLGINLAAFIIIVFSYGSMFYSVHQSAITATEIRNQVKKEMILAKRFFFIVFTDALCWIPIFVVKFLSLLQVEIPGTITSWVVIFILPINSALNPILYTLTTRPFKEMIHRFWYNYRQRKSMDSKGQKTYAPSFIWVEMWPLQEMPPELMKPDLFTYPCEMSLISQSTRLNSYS
row,Structure (SMILES),"activity change, negative = inhibition"
1,O=C(Nc1ccc([N+](=O)[O-])cc1)C(Cc1ccccc1)N1C(=O)c2cccc3cccc(c23)C1=O (stereo not drawn),inactive: -11%
2,COc1ccc(-n2nc3c(N4CCCC(C(=O)NCCc5ccccc5C)C4)nnc(C)c3c2C)cc1 (stereo not drawn),inconclusive: -49.4%
3,O=C(Nc1ccc(N2CCN(C(=O)c3cccs3)CC2)cc1)c1ccc(F)cc1,active: -66.3%
4,O=c1[nH]c2ccccc2n1CCCN1CCN(C(c2ccccc2)c2ccccc2)CC1,active: -75.3%
5,Cc1ccc(CSc2nc(-c3ccccc3C)nc3c2Cc2c(CO)cnc(C)c2O3)cc1,inconclusive: -50.8%
6,CCCCn1c(=N)n(CCOc2ccccc2OC)c2ccccc21,inactive: -14.3%
7,COc1ccccc1N1CCN(C(=O)c2cc(C)oc2C)CC1,inconclusive: -42.2%
8,CCOC(=O)c1[nH]c2ccc(F)cc2c1NC(=O)CCN1CCOCC1,inactive: -0.0245%
9,O=C(COc1cccc2ccccc12)Nc1cc(Cl)ccc1C(=O)O,active: -81%
10,O=C(COC(=O)CCC(=O)c1ccc(F)cc1)NCc1ccccc1Cl,inactive: 8.04%
11,O=C(/C=C/c1cc(Br)ccc1O)c1ccco1,inconclusive: -57.7%
12,COC(=O)c1ccccc1NC(=O)CCS(=O)(=O)c1nc(-c2ccc3c(c2)OCO3)cc(C(F)(F)F)n1,active: -62.9%
13,C=C1CCc2c([nH]c3ccc(OCC(C)C)cc23)C1=O,inconclusive: -59.2%
14,Cc1cccc(Cn2c(Cc3ccccc3)nc3ccccc32)c1,inconclusive: -41.8%
15,COc1ccc(NC(=O)C2CCCN2c2nn3c(=O)cc(C)nc3s2)cc1 (stereo not drawn),inactive: 5.7%
16,O=C(N/N=C/c1ccccc1OCc1ccccc1)c1cccs1,inconclusive: -47.1%
17,CC(C)(C)c1ccc(S(=O)(=O)N2CCC(CO)(CC3CCCCO3)CC2)cc1 (stereo not drawn),inconclusive: -45.3%
18,COc1ccccc1NC(=O)c1cc(Cl)nc2ccccc12,inconclusive: -46%
19,Cc1ccccc1COC(=O)c1nn(-c2ccccc2)nc1N,inconclusive: -45.8%
20,CCOc1cc(-c2ccc(OC(=O)c3ccccc3Cl)c(OC)c2)cc(=O)c2c(C)oc(C)c12,active: -73%
21,CCc1nc(N2CCN(C(=O)c3ccccc3)CC2)c(C#N)c2c1COC(C)(C)C2,inactive: 5.74%
22,CC(C)(C)c1ccc(C(=O)NCC(c2cccnc2)N2CCc3ccccc3C2)cc1 (stereo not drawn),active: -76.9%

row,Structure (SMILES),"activity change, negative = inhibition"
1,CCN(C(=O)C1CCN(S(=O)(=O)c2cc(Br)cc3c2N(C(C)=O)CC3)CC1)c1cccc(C)c1,inactive: -2.9%
2,COC(=O)c1nc(Cl)c(Cl)nc1N,active: -98.8%
3,CCc1nc2ccc(C(=O)NCc3cc(OC)ccc3OC)cc2nc1CC,inactive: -26.5%
4,Cc1ccc(-c2noc(-c3ccccc3C(=O)NCc3ccco3)n2)cc1,inconclusive: -40.9%
5,CCCCCCCCCCCCCCCC[n+]1cccc(C(=O)N(CC)CC)c1,inconclusive: -57.3%
6,Cc1ccccc1Oc1nnc(-c2cccs2)c2ccccc12,inconclusive: -44.1%
7,C=CCOc1cccc(C(=O)/C=C2/C(=O)Nc3ccccc32)c1,inconclusive: -51.3%
8,CCc1ccc(CSc2nccn2-c2ccccc2)cc1,inconclusive: -45.5%
9,Cc1oc(-c2cccs2)nc1CN1CCC(CO)(CCOc2ccccc2)CC1,inconclusive: -55.7%
10,CCOC(=O)c1cc(-c2csc(Nc3c(C)cc(C)cc3C)n2)on1,inconclusive: -43.4%
11,COc1ccc2cc(C(=O)C3CCCN(Cc4cccc(C)n4)C3)ccc2c1 (stereo not drawn),inconclusive: -50.9%
12,CCOC(=O)c1cc(C)n(-c2ccc(Cl)cc2)c1C,inconclusive: -41.3%
13,CCCCCCCCOC(=O)CCc1c(C)[nH]c(=S)[nH]c1=O,active: -70.1%
14,COc1cc(/C=C2/SC(=S)NC2=O)ccc1OS(=O)(=O)c1ccc(C)cc1,inconclusive: -57.7%
15,COC1C(CO)OC(n2c3c(Cl)cccc3c3c4c(c5c6cccc(Cl)c6[nH]c5c32)C(=O)NC4=O)C(O)C1O (stereo not drawn),inactive: 7.61%
16,Oc1ccccc1CNc1nc2ccccc2n1CCN1CCCCC1,inconclusive: -45.7%
17,Cc1c(C(=O)OCC(=O)c2c(N)n(CC(C)C)c(=O)n(C)c2=O)oc2ccccc12,inactive: -5.62%
18,Cc1ccccc1NS(=O)(=O)c1ccc(C(=O)NCC(c2ccccc2)N(C)C)cc1 (stereo not drawn),inconclusive: -41.1%
19,O=C1c2[nH]nc(-c3ccccc3O)c2C(c2cccc(OCc3ccccc3)c2)N1CCCO (stereo not drawn),active: -64.1%
20,Cc1cccc(NC(=O)CN2C(=O)S/C(=C\c3cccn3-c3cccc(C(=O)O)c3)C2=O)c1,inconclusive: -41.4%
21,CN(C)c1cc(N/N=C\c2ccccc2)nc(N(C)C)n1,inactive: -17.2%
